Reference: patent US20070112043A1, “Acylated and non-acylated imidazo[2,1-b]-1,3,4,-thiadiazole-2-sulfonamides, and uses thereof” (priority 2003, published 2007)
Some results were stated once for a whole list of compounds, not compound by compound.

Experiment: Solubility in water and formulations
Settings: for aqueous solubility: water

Compound `NS(=O)(=O)c1nn2cc(-c3ccccc3)nc2s1` [Compound 1] has an aqueous solubility of less than 500 µg/mL.

With `[NH-]S(=O)(=O)c1nn2cc(-c3ccccc3)nc2s1.[Na+]` [Compound 2] the aqueous solubility was 1000 to 10000 µg/mL.

Compound `[NH-]S(=O)(=O)c1nn2cc(-c3ccc(F)cc3)nc2s1.[Na+]` [Compound 4] has an aqueous solubility of 1000 to 10000 µg/mL.

With `NS(=O)(=O)c1nn2cc(-c3ccc(N4CCOCC4)cc3)nc2s1` [Compound 5] the aqueous solubility was less than 500 µg/mL.

`[NH-]S(=O)(=O)c1nn2cc(-c3ccc(N4CCOCC4)cc3)nc2s1.[Na+]` [Compound 6] gave an aqueous solubility of 1000 to 10000 µg/mL.

`NS(=O)(=O)c1nn2cc(-c3ccc4c(c3)OCCCO4)nc2s1` [Compound 7] gave an aqueous solubility of less than 500 µg/mL.

Work on `[NH-]S(=O)(=O)c1nn2cc(-c3ccc4c(c3)OCCCO4)nc2s1.[Na+]` [Compound 8] yielded an aqueous solubility of 1000 to 10000 µg/mL.

With `COc1cccc(-c2ccc(-c3cn4nc(S(N)(=O)=O)sc4n3)cc2)c1` [Compound 9] the aqueous solubility was less than 500 µg/mL.

Work on `COc1cccc(-c2ccc(-c3cn4nc(S([NH-])(=O)=O)sc4n3)cc2)c1.[Na+]` [Compound 10] yielded an aqueous solubility of 1000 to 10000 µg/mL.

`NS(=O)(=O)c1nn2cc(-c3ccc(-c4cccc(C(F)(F)F)c4)cc3)nc2s1` [Compound 11] showed an aqueous solubility of less than 500 µg/mL.

With `[NH-]S(=O)(=O)c1nn2cc(-c3ccc(-c4cccc(C(F)(F)F)c4)cc3)nc2s1.[Na+]` [Compound 12] the aqueous solubility was 1000 to 10000 µg/mL.

Work on `NS(=O)(=O)c1nn2cc(-c3ccc(Oc4ccc(Cl)cc4)cc3)nc2s1` [Compound 13] yielded an aqueous solubility of less than 500 µg/mL.

Compound `[NH-]S(=O)(=O)c1nn2cc(-c3ccc(Oc4ccc(Cl)cc4)cc3)nc2s1.[Na+]` [Compound 14] has an aqueous solubility of 1000 to 10000 µg/mL.

Compound `O=C(NS(=O)(=O)c1nn2cc(-c3ccccc3)nc2s1)C1CCCN1` (stereo not drawn) [Compound 26] has a solubility once neutralized (PBS/10 wt/vol % HPCD (25:75)) of 4000 to 5000 µg/mL.

Work on `NS(=O)(=O)c1nn2cc(-c3ccncc3)nc2s1` [Compound 125] yielded an aqueous solubility of less than 500 µg/mL.
